Among all 46,000 compounds or so, about 60 (0.1%) were called active. Inconclusive results (about 3%) are left out. Calls follow the shape of the dose curve; as a rule, active = well fitted inhibition curve with a large enough effect; inconclusive = small, poorly fitted or top-dose-only effect; inactive = no such curve, though single readings can be large or run the other way. This is one part of the list.
assay: Primary qHTS assay for Inhibitors of ovarian cancer metastasis using an organotypic tumor microenvironment (TME) model.; also: nearly all actives have a fitted effect of over 65% in size;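 as to activity change, negative = inhibition: plate controls were DMSO wells for no effect and tomatine positive control wells for full effect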; settings: SKOV3ip1-GFP adhesion/invasion on 3D omental model, fluorescence; series mostly up to 45.8 µM; activity change, negative = inhibition: at the top concentration
Summary of the method: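 Adhesion/invasion was scored as fixed GFP-labeled SKOV3ip1 cell counts (488/509 nm), normalized to DMSO and tomatine controls. Cancer cells in serum-free medium, with four compound doses (0.36-46 umol/L), sat 2 hr at RT then 16 hr at 37 C on a 48 hr fibroblast/mesothelial/ECM culture.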

outcome, inactive:
CCOc1cc(C(=O)Nc2cccc(-c3nc4ccccc4o3)c2)cc(OCC)c1OCC
CC(=O)Nc1ccc(S(=O)(=O)NC2(C(F)(F)F)NC(=O)N(c3ccc(C)cc3)C2=O)cc1 (configuration not stated)
CCN(CC)c1ccc(NC(=O)CSc2nnc(C)c(=O)[nH]2)cc1
Cc1cc(Nc2ccc(C)c(C)c2)n2cnnc2n1
COCCN1C(=O)c2[nH]nc(-c3ccccc3O)c2C1c1ccc(OCc2ccccc2)c(OC)c1 (configuration not stated)
CCOC(=O)c1c(NC(=O)COc2ccccc2F)sc2c1CCCC2
COc1cccc(Cn2c(CNC(=O)C(C)C)nc3cccnc32)c1
COc1ccc(OC)c(S(=O)(=O)NCCc2sc(-c3ccc(C)cc3)nc2C)c1
COC(=O)c1cc(S(=O)(=O)NCC2CCN(Cc3cc(C)ccc3C)CC2)c[nH]1
COc1ccccc1Nc1nn2c(=O)c3ccc(C(=O)NCc4cccs4)cc3nc2s1
Cc1ccc(C(=O)N2CCC(c3c[nH]c4ccccc34)(c3c[nH]c4ccccc34)CC2)cc1
Cc1ccc(S(=O)(=O)c2nc(-c3ccco3)oc2SC(C)c2ccccc2)cc1 (configuration not stated)
COc1ccccc1/C=C/c1nc(C#N)c(N2CCCCCC2)o1
Cc1ccc(CNC(=O)c2ccc(CSCc3ccc(Cl)cc3)o2)cc1
O=C(CSc1nc2c(oc3ccccc32)c(=O)n1Cc1ccco1)Nc1cccc(Cl)c1
COc1ccc(N(CC(=O)NCc2ccc(F)cc2)S(=O)(=O)c2c(C)n[nH]c2C)cc1
COC(=O)c1cc(NC(=O)Cn2nc(C)n3cccc3c2=O)cc(C(=O)OC)c1
COc1ccccc1CNC(=O)CCn1c(=O)c2ccccc2n(CC(=O)Nc2ccc(C)cc2C)c1=O
Cc1cc(OC(=O)c2cc(-c3ccc4c(c3)OCCO4)on2)ccc1Cl
COc1ccc(C(CC(=O)Nc2ccc(C)c(C)c2)N2Cc3ccccc3C2=O)cc1OC (configuration not stated)
CC(=O)c1cccc(S(=O)(=O)NCCc2csc3nc(-c4ccc(F)cc4)nn23)c1
Cc1nc(CC(=O)Nc2cccc(C)c2C)cs1

Activity change, negative = inhibition, inactive:
O=C(c1cccc([N+](=O)[O-])c1)N1c2ncnn2C2(CCCCC2)[C@@H]2CCCC[C@@H]21 0.0919%
COc1cccc(OCCCCn2c(-c3ccc(Cl)cc3)nc3ccccc3c2=O)c1 -0.245%
Cc1ccc(-c2onc(C)c2C)cc1S(=O)(=O)NCc1ccco1 5.74%
O=S(=O)(NCCSc1nnnn1-c1ccccc1)c1ccc(F)cc1 2.47%
CCCN(CCC)C(=O)CSc1nnc2cc(C)c3cc(C)cc(C)c3n12 31.2%
CCOC(=O)c1c(C)oc2nc(C)nc(NCc3ccccc3Cl)c12 -7.55%
COC(=O)c1ccccc1NC(=O)Cn1cc(S(=O)(=O)Cc2ccccc2F)c2ccccc21 -11.2%
Cc1ccc2cccc(NC(=O)COc3ccccc3[N+](=O)[O-])c2n1 1.43%
CCCCc1ccc(-n2nc3cc(C)c(NC(=O)Cc4ccccc4)cc3n2)cc1 20.6%
Cc1ccc(S(=O)(=O)c2cnc(SCC(=O)Nc3cc(C)cc(C)c3)nc2N)cc1 34.6%
Cc1cccc(OCc2ccc(-c3nc(C#N)c(NCCN(C)C)o3)o2)c1 -16.3%
COc1ccc2c(c1)c1c(c(=O)n(-c3ccccc3C)c(=O)n1CC(=O)NCc1ccc(C)cc1)n2C -6.58%
COC(=O)c1c(-c2cccs2)csc1NC(=O)c1ccc(Cl)cc1 -0.103%
CCc1ccc(N(CC)C(=O)c2ccc3c(=O)n4c(nc3c2)CCCCC4)cc1 -6.2%
Cc1cccc(CN2C(=O)c3ccccc3Sc3ccc(C(=O)N4CCCC4)cc32)c1 -34%
Cc1ccc2c(=O)c(C(=O)c3ccc(F)cc3)cn(CC(=O)NCc3ccccc3)c2n1 2.52%
CCOC(=O)c1c(NC(=O)/C=C/c2ccccc2)sc2c1CCCC2 14.3%
COc1ccc(N2CCN(C(=O)c3ccc(C)c(NC(=O)c4nsc5ccccc45)c3)CC2)cc1 9.67%
CC(C)(C)OC(=O)N1CCC(c2c(C(=O)NCc3ccccn3)cnn2-c2ccccc2)CC1 2.57%
COc1ccc(C(=O)Nc2ccc(-c3nc4ncccc4o3)cc2)cc1 2.72%
COc1ccc(OC)c(-c2cc(C(=O)Nc3cccc(Cl)c3C)no2)c1 -21.2%
COc1cc(Cl)ccc1Nc1ncc(C(=O)N2CCN(c3ccccc3OC)CC2)c2ccccc12 1.06%
COc1ccccc1Nc1cc(C(=O)NCCCN(C)c2ccccc2)c2ccccc2n1 -2.41%
COc1cccc(CNC(=O)c2ccc(Cn3c(SCc4ccccc4)nc4cccnc43)cc2)c1 0.493%
Cn1nccc1C(=O)NCc1ccc2c(c1)CCN2C(=O)c1ccc(F)cc1 -25.8%
Cc1nc2ccccc2n1CC(O)COc1ccc(C(=O)O)cc1 (configuration not stated) -6.14%
COc1cc(NC(=O)CCc2c(C)nc3nc(-c4cc(OC)cc(OC)c4)nn3c2C)cc(OC)c1 -1.71%
CCC(=O)N1c2ccc(S(=O)(=O)NCc3cccc(OC)c3)cc2CC1C (configuration not stated) 18.1%
O=C(CSc1nc(-c2ccccc2)nc2c1CCCC2)c1ccc(F)cc1 3.58%
CCCCN(Cc1ccccc1)C(=O)c1oc(=O)c2ccccc2c1-c1ccc(C)cc1 -2.12%
CC1CCCN(S(=O)(=O)c2ccc(NC(=O)c3nc(SC(C)C)ncc3Cl)cc2)C1 (configuration not stated) -0.884%
CCC(Sc1nnc(-c2ccc(OC)cc2)c(-c2ccc(OC)cc2)n1)C(=O)NC1CCCCC1 (configuration not stated) -9.87%
CCn1c(C(=O)N2CCC(C(=O)NCCc3ccccc3)CC2)cc2sccc21 -11.9%
Cc1ccc(NS(=O)(=O)c2ccc(NC(=O)N3CCCC3)cc2)cc1C 4.52%
Cc1ccc(-n2c3nc(=O)n(C)c(=O)c-3cc3c(Cl)cccc32)c(C)c1 -1.71%
COc1cccc(N2CC(NC(=O)/C=C\c3ccc4c(c3)OCO4)CC2=O)c1 (configuration not stated) -2.37%
COc1ccc(N2CC(NC(=O)c3ccc(S(=O)(=O)N4CCCC4)cc3)CC2=O)cc1 (configuration not stated) -1.91%
CCOC(=O)c1ccc(NC(=O)C(CC)Sc2nc3ncccc3[nH]2)cc1 (configuration not stated) -1.67%
COc1ccc(-n2nc(C(=O)N3CCN(c4ccccc4OC)CC3)c3c4ccccc4n(C)c3c2=O)cc1 -8.28%
Nc1ncnc2c1ncn2[C@@H]1O[C@H](CO)[C@@H](O)[C@@H]1O -28.8%
CCc1ccccc1NC(=O)CN1C(=O)CCc2cc(S(=O)(=O)N3CCCCC3)ccc21 1.64%
O=C(Nc1cc(C(F)(F)F)ccc1Cl)c1cc2nc(-c3ccc4c(c3)OCO4)cc(C(F)(F)F)n2n1 -5.53%
Cn1c(=O)oc2cc(S(=O)(=O)N3CCCC(C(=O)Nc4ccc(Br)cc4F)C3)ccc21 (configuration not stated) 5.85%
O=C(NCc1cccc(F)c1)C1=Cc2cc(Br)ccc2OC1 4.55%
Cc1ccc(-n2ccnc(NCc3ccccc3)c2=O)cc1C 1.16%
COc1ccc(OCCCn2c(=O)oc3ccc(C)cc32)cc1 -3.11%
Cc1ccc(C)c(Cn2nnc(C(=O)NCc3ccc(Cl)cc3Cl)c2N)c1 -3.7%
COc1cc2c(cc1NS(=O)(=O)c1cccc(C#N)c1)n(C)c(=O)n2C 8.63%
Cc1cc(C)cc(NC(=O)CN2C(=O)c3ccccc3Sc3ccc(C(=O)N4CCOCC4)cc32)c1 -9.12%
CCc1ccc(NC(=O)c2ccc(F)c(S(=O)(=O)N3CCC(C)CC3)c2)cc1 -9.05%
Cc1cn(C)c(CC(=O)Nc2cccc(Cl)c2C)c1C(=O)O -4.06%
CCOC(=O)c1sc2ccccc2c1S(=O)(=O)Nc1cccc(C(F)(F)F)c1 -4.93%
Cc1cccc(C(=O)NCCc2sc(-c3ccccc3)nc2C)c1 8.59%
C=CCc1cccc2cc(C(=O)Nc3cccc(Cl)c3)c(=O)oc12 -2.31%
COc1ccc(-c2nnc(SCC(=O)Oc3c(C)cccc3C)o2)cc1OC 5.97%
CCCCN(C)C(=O)C(Cc1ccccc1)NS(=O)(=O)c1ccc2c(c1)c(=O)n(C)c(=O)n2C (configuration not stated) -3.16%
Cc1oc(-c2cccc(Cl)c2)nc1CN1CCCC(C(=O)NCc2ccc(F)cc2)C1 (configuration not stated) 17.2%
CC(C)OCCCNC(=O)c1ccc2c(=O)n(CCc3ccccc3)c(=O)[nH]c2c1 1.23%
Cc1coc2c1c(C)cc1oc(=O)cc(C)c12 21.6%
CCOC(=O)C1=C(CS(=O)(=O)c2ccc(Br)cc2)NC(=O)NC1c1ccccc1 (configuration not stated) 18.2%
Cc1ccccc1CNC(=O)c1ccc(-c2nc(CS(=O)(=O)c3ccccc3)c(C)o2)cc1 -8.85%
Cc1ccc(-c2c(C(=O)NCc3ccccc3)oc(=O)c3ccccc23)cc1 2.99%
COc1cc(NC(=O)c2cc(Cl)c(OC)c(Cl)c2)ccc1NC(=O)c1cc2ccccc2o1 1.25%
CCc1cccc(C)c1NC(=O)c1cc(C)nc2c1c(C)nn2-c1cccc(Cl)c1C -7.7%
COc1ccc(C)cc1NC(=O)CN(c1cc(C(F)(F)F)ccc1Cl)S(C)(=O)=O 7.42%
CC(=O)c1c(C)oc2ccc(N(C(=O)Oc3ccccc3)S(=O)(=O)c3ccc(C(C)(C)C)cc3)cc12 15.4%
CN1c2ccccc2-c2nc(SCC(=O)Nc3ccccc3C(F)(F)F)ncc2S1(=O)=O -0.658%
Cc1ccc(CN2CCCn3nc(C(=O)NCCc4ccc(Cl)cc4)cc3C2=O)cc1 -7.77%
COc1ccc2c(c1)-c1nc(NC(=O)c3cc(Cl)ccc3OC)sc1CC2 -7.08%
CCN(Cc1ccccc1)C(=O)Cn1c(=O)n(Cc2ccccc2)c(=O)c2c1c1cc(OC)ccc1n2C 7.84%
Cc1ccc(CSc2nc3ccc(NC(=O)C(C)C)cc3s2)cc1 -8.71%
CCc1nn2c(=O)c(S(=O)(=O)Nc3ccc(OC)c(Cl)c3)c(C)nc2s1 -23.2%
Cc1ccc2c(=O)cc(CSc3ccccc3)[nH]c2c1C -4.99%
Cc1ccc(CSCC(=O)N2CCN(c3ccc(F)cc3)CC2)cc1 -0.811%
CC(C)c1ccc(S(=O)(=O)c2nnn3c2nc(NC2CCCC2)c2sccc23)cc1 -0.725%
